Some of the results follow. The energies were worked out here from pooled read counts, against the library average; single values are noisy.

The target of this experiment is T1, Pho4 (S. cerevisiae) (UniProt P07270).
T1 sequence: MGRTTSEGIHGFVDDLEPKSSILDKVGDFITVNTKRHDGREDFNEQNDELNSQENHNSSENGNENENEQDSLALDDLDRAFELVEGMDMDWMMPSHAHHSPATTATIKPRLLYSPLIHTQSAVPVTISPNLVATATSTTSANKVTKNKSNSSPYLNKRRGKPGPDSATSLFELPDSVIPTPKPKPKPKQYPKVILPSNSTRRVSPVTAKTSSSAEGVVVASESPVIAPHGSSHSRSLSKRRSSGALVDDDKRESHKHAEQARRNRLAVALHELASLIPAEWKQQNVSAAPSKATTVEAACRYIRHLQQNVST
Briefly: relative binding free energy (BET-seq); higher = weaker binding. Particulars: reference: library average.
Regarding GTTGTCACGTGGAACT, the “relative binding free energy” value was 0.19 kcal/mol.

As to TGGGACACGTGCTATT, the “relative binding free energy” value is -0.04 kcal/mol.

Take AACAGCACGTGGGTTT: the “relative binding free energy” value is -0.15 kcal/mol.

With GTGATCACGTGAGTGT, the “relative binding free energy” value was determined as 0.31 kcal/mol.

On to GGTTTCACGTGATTAG, for which the “relative binding free energy” value was determined as 0.38 kcal/mol.

In the case of GTTACCACGTGTGTGA, the “relative binding free energy” value is 0.07 kcal/mol.

Consider TTGTTCACGTGAAAGA, for which the “relative binding free energy” value worked out at 0.51 kcal/mol.

For ATAGCCACGTGTGTTG, the “relative binding free energy” value is -0.09 kcal/mol.

For TGCTTCACGTGGGTGA, the “relative binding free energy” value worked out at 0.13 kcal/mol.

Consider AATGTCACGTGTCGTC, for which the “relative binding free energy” value was determined as 0.22 kcal/mol.

Consider CTGGGCACGTGTGTAT, for which the “relative binding free energy” value came out at 0.05 kcal/mol.

Consider GGGTGCACGTGATATG, for which the “relative binding free energy” value amounted to 0.15 kcal/mol.

For the sequence GCCGTCACGTGGGGCT, the “relative binding free energy” value is 0.03 kcal/mol.

For the sequence TGTGACACGTGTGGCG, the “relative binding free energy” value is -0.01 kcal/mol.

For GGCATCACGTGAGGTT, the “relative binding free energy” value turned out to be 0.44 kcal/mol.

For TAAGGCACGTGGTGTA, the “relative binding free energy” value was -0.17 kcal/mol.

Consider GTATACACGTGATAGT, for which the “relative binding free energy” value is 0.07 kcal/mol.

On to CAGGGCACGTGGTGTT, for which the “relative binding free energy” value is -0.22 kcal/mol.

For the sequence CTTGGCACGTGTTACG, the “relative binding free energy” value worked out at 0.04 kcal/mol.

For the sequence AATTTCACGTGTGGAT, the “relative binding free energy” value was 0.22 kcal/mol.

Regarding GGTTGCACGTGGAACG, the “relative binding free energy” value amounted to 0.1 kcal/mol.

TAAGTCACGTGAGTGT: the “relative binding free energy” value was 0.34 kcal/mol.

CTATGCACGTGGTTTG: the “relative binding free energy” value was -0.01 kcal/mol.

As to TATGTCACGTGTGAAT, the “relative binding free energy” value was 0.2 kcal/mol.

With GAGGGCACGTGTAAAT, the “relative binding free energy” value amounted to 0.26 kcal/mol.

For TTTGGCACGTGGAGCA, the “relative binding free energy” value was -0.1 kcal/mol.

Turning to TGTGTCACGTGAAAGC, the “relative binding free energy” value was 0.33 kcal/mol.

Take TGAAACACGTGAATGG: the “relative binding free energy” value came to 0.36 kcal/mol.

For the sequence CTTTTCACGTGAGTGT, the “relative binding free energy” value is 0.37 kcal/mol.

Regarding ATTGGCACGTGAATAG, the “relative binding free energy” value was -0.02 kcal/mol.

For the sequence CATGTCACGTGGTTCT, the “relative binding free energy” value stood at 0.17 kcal/mol.

For the sequence AGTGTCACGTGATAAG, the “relative binding free energy” value turned out to be 0.23 kcal/mol.

In the case of TTTATCACGTGAATGC, the “relative binding free energy” value was found to be 0.32 kcal/mol.

On to AAGTCCACGTGGGCGG, for which the “relative binding free energy” value was -0.03 kcal/mol.

As for AGGGACACGTGTAAAG, the “relative binding free energy” value was found to be 0.28 kcal/mol.

On to CGGGTCACGTGTGCTT, for which the “relative binding free energy” value was 0.2 kcal/mol.

On to TGTGGCACGTGGTGCT, for which the “relative binding free energy” value was -0.14 kcal/mol.

ATGTTCACGTGAGGTC: the “relative binding free energy” value came out at 0.22 kcal/mol.

For GAGATCACGTGGTTTT, the “relative binding free energy” value stood at 0.14 kcal/mol.

For GTTATCACGTGGATCT, the “relative binding free energy” value is 0.1 kcal/mol.

On to AATGTCACGTGAAGAG, for which the “relative binding free energy” value turned out to be 0.23 kcal/mol.

Regarding AACTGCACGTGGGTTG, the “relative binding free energy” value was -0.18 kcal/mol.

Take TTGCGCACGTGATTTG: the “relative binding free energy” value is -0.07 kcal/mol.

As to GTTAACACGTGTTGGC, the “relative binding free energy” value amounted to 0.22 kcal/mol.

On to GTTATCACGTGAGATT, for which the “relative binding free energy” value came to 0.43 kcal/mol.

Turning to CGCTTCACGTGGGGTG, the “relative binding free energy” value was 0.15 kcal/mol.

As for CATGGCACGTGCTTTG, the “relative binding free energy” value is -0.06 kcal/mol.

Consider TAAAGCACGTGGGATG, for which the “relative binding free energy” value is -0.25 kcal/mol.

In the case of GGGGACACGTGGGTAG, the “relative binding free energy” value is -0.05 kcal/mol.

With CGTAGCACGTGGCGGA, the “relative binding free energy” value was -0.13 kcal/mol.

As for GAGTGCACGTGGAGAG, the “relative binding free energy” value was -0.03 kcal/mol.

On to GTCTTCACGTGTGTTG, for which the “relative binding free energy” value came out at 0.3 kcal/mol.

With ATTGACACGTGCGTGT, the “relative binding free energy” value is -0.1 kcal/mol.

With CTGTTCACGTGTGTAT, the “relative binding free energy” value is 0.38 kcal/mol.

As for TTTGCCACGTGCAAGG, the “relative binding free energy” value is -0.09 kcal/mol.

For the sequence ATTTTCACGTGTGTTC, the “relative binding free energy” value was found to be 0.29 kcal/mol.

For the sequence TTTTGCACGTGGCCTG, the “relative binding free energy” value is -0.14 kcal/mol.

Consider GATATCACGTGGTTAA, for which the “relative binding free energy” value came to 0.14 kcal/mol.

Take GATTTCACGTGGTTGC: the “relative binding free energy” value was 0.38 kcal/mol.

Turning to TTGGACACGTGTTATA, the “relative binding free energy” value came to 0.04 kcal/mol.

On to TTGGACACGTGATGCT, for which the “relative binding free energy” value came to 0.11 kcal/mol.

In the case of TCTTTCACGTGGGGTT, the “relative binding free energy” value was 0.18 kcal/mol.

In the case of TATTTCACGTGAGCTG, the “relative binding free energy” value came to 0.45 kcal/mol.

As to CTTAGCACGTGGGGAA, the “relative binding free energy” value was -0.18 kcal/mol.

Turning to ATTGCCACGTGGGTGG, the “relative binding free energy” value is -0.1 kcal/mol.

For ATGGTCACGTGAGCGT, the “relative binding free energy” value was 0.18 kcal/mol.

For the sequence GGCTACACGTGGTGTG, the “relative binding free energy” value was determined as 0.09 kcal/mol.

TGGGTCACGTGAGAAG: the “relative binding free energy” value was 0.33 kcal/mol.

As for TTTGTCACGTGCTGTG, the “relative binding free energy” value was 0.02 kcal/mol.

With TCTAACACGTGCGGGT, the “relative binding free energy” value amounted to 0.12 kcal/mol.

Regarding TGAGGCACGTGGATTC, the “relative binding free energy” value was -0.04 kcal/mol.

Consider CGTGCCACGTGTTGTG, for which the “relative binding free energy” value was -0.06 kcal/mol.

With ATAGGCACGTGATGGT, the “relative binding free energy” value was -0.04 kcal/mol.

Turning to TGTGTCACGTGTCGGC, the “relative binding free energy” value is 0.13 kcal/mol.

Take GTTTTCACGTGCGTGA: the “relative binding free energy” value was 0.31 kcal/mol.

For TGATTCACGTGTTTGA, the “relative binding free energy” value amounted to 0.28 kcal/mol.

In the case of GTTTACACGTGGTTCT, the “relative binding free energy” value is 0.17 kcal/mol.

In the case of CGGTCCACGTGATGGG, the “relative binding free energy” value is 0.03 kcal/mol.

As for AGGTACACGTGGTCTA, the “relative binding free energy” value is -0.07 kcal/mol.

Consider TTATTCACGTGCAATG, for which the “relative binding free energy” value was 0.18 kcal/mol.

With TGTTTCACGTGACGTC, the “relative binding free energy” value stood at 0.31 kcal/mol.

On to GTTGGCACGTGCAATT, for which the “relative binding free energy” value was -0.1 kcal/mol.

For the sequence CTTTGCACGTGAGTGA, the “relative binding free energy” value was determined as 0.01 kcal/mol.

For GAATGCACGTGTACGT, the “relative binding free energy” value was found to be 0.18 kcal/mol.

Regarding ATATACACGTGGGGCG, the “relative binding free energy” value is -0.23 kcal/mol.

As to TCTTACACGTGATTGT, the “relative binding free energy” value came out at 0.14 kcal/mol.

Consider GTCGGCACGTGATGAG, for which the “relative binding free energy” value was 0.02 kcal/mol.

Regarding TAGGGCACGTGTGTTA, the “relative binding free energy” value is -0.01 kcal/mol.

In the case of TATTACACGTGGTATG, the “relative binding free energy” value came out at 0 kcal/mol.

For the sequence TGGCGCACGTGGGAGG, the “relative binding free energy” value is -0.1 kcal/mol.

As for TGGGGCACGTGTGTGG, the “relative binding free energy” value was -0.04 kcal/mol.

Take TGAGCCACGTGGGAGA: the “relative binding free energy” value was -0.02 kcal/mol.

As to TTGGCCACGTGGTTTC, the “relative binding free energy” value is -0.09 kcal/mol.

For the sequence CAGGACACGTGGTGTA, the “relative binding free energy” value was -0.02 kcal/mol.

Consider GTATGCACGTGATAAG, for which the “relative binding free energy” value turned out to be 0.23 kcal/mol.

On to ATAGCCACGTGTGGTT, for which the “relative binding free energy” value is -0.05 kcal/mol.

Regarding TAGCTCACGTGGGGAT, the “relative binding free energy” value was 0.1 kcal/mol.

As for GTATTCACGTGTTGGC, the “relative binding free energy” value is 0.34 kcal/mol.

On to GAGGTCACGTGGATAT, for which the “relative binding free energy” value was determined as 0.15 kcal/mol.

In the case of ATGCACACGTGAGGTG, the “relative binding free energy” value is 0.13 kcal/mol.

Consider TGTTTCACGTGGTTTA, for which the “relative binding free energy” value was 0.2 kcal/mol.

Turning to TAGGGCACGTGGGCTT, the “relative binding free energy” value is -0.23 kcal/mol.

In the case of TATGTCACGTGCGTGT, the “relative binding free energy” value was 0.03 kcal/mol.

Consider GAACGCACGTGGGTGT, for which the “relative binding free energy” value is -0.25 kcal/mol.

In the case of GGAAACACGTGTTGTG, the “relative binding free energy” value was -0.12 kcal/mol.

Regarding AGAAACACGTGTGAGG, the “relative binding free energy” value is -0.05 kcal/mol.

As to TTAGTCACGTGTAAGT, the “relative binding free energy” value was 0.27 kcal/mol.

Consider CGGTACACGTGTGCTG, for which the “relative binding free energy” value is 0.05 kcal/mol.

In the case of ACAGTCACGTGGTAAG, the “relative binding free energy” value came out at 0.12 kcal/mol.

For the sequence ACTGTCACGTGAAGGG, the “relative binding free energy” value amounted to 0.35 kcal/mol.

Turning to TAAATCACGTGATTGT, the “relative binding free energy” value is 0.35 kcal/mol.

As to AAGGCCACGTGGGGGA, the “relative binding free energy” value is -0.3 kcal/mol.

For TTAGGCACGTGTAGAT, the “relative binding free energy” value was 0.09 kcal/mol.

CTAAGCACGTGAGGGT: the “relative binding free energy” value came out at 0.24 kcal/mol.

For the sequence GATAGCACGTGGGAGG, the “relative binding free energy” value was -0.1 kcal/mol.

The record behind these values is the BET-seq Pho4 binding data (Le et al. 2018).
